# Results as given in PubChem BioAssay AID1346428 (National Center for Advancing Translational Sciences (NCATS), 2018).
# Out of some 48,000 compounds screened, about 1,200 (2.5%) were called active. Roughly 2% stayed inconclusive and do not appear here.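 Rule for the calls: active = activation of at least 60% and not above a set upper limit (about 1 call in 100 departs from these limits); inconclusive = activation of 40% to 60%, or above that upper limit; inactive = activation under 40%.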 Some of the results follow.
# Target: Probable G-protein coupled receptor 32 (Homo sapiens) (UniProt O75388)
# Assay: qHTS for Agonists of Human Resolvin D1 Receptor DRV1; note: 0% is about no effect
# Conditions: CHO-K1 GPR32 beta-arrestin PathHunter luminescence, 90 min; at 76.9 µM; active compounds read high; zero percent set by DMSO-only wells
# Outline: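 PathHunter beta-arrestin recruitment in CHO-K1 cells stably expressing ProLink-tagged GPR32. Cells were exposed to compound for 90 min at 37 C, then chemiluminescence was read after 1 h detection at ambient temperature; DMSO served as basal control.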
# UniProt O75388, sequence (O75388 whole entry, looked up): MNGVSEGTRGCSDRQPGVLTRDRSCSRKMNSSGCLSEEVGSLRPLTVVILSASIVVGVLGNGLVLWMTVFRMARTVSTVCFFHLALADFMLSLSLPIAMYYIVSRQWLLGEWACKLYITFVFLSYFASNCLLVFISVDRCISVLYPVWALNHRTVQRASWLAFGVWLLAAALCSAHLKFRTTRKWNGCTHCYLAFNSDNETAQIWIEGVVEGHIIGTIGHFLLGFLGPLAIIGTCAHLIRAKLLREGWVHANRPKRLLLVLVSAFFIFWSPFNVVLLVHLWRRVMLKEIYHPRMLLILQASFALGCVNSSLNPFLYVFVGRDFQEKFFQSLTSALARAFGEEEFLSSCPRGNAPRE
row,Structure (SMILES),activation
1,Cc1cccc(CSc2nc3cccnc3n2Cc2ccc(C(=O)NCc3ccco3)cc2)c1,inactive: -17.3%
2,COc1ccc(CN(Cc2ccco2)c2cnc(S(C)(=O)=O)nc2C(=O)Nc2ccc(C)c(C)c2)cc1,inactive: -17.1%
3,COC(=O)c1ccc(C(=O)Nc2ccc(-c3nc4cc(NC(=O)c5ccc(C(=O)OC)cc5)ccc4o3)cc2)cc1,inactive: 14.4%
4,O=C(CCC1N=C2c3ccccc3N=C(SCc3ccccc3Cl)N2C1=O)N1CCN(c2ccccc2)CC1 (stereo not drawn),inactive: -27.3%
5,Nc1ccc(S(=O)(=O)Nc2nccs2)cc1,inactive: 0.127%
6,O=C(O)c1cccc(-c2noc(-c3ccccc3F)n2)c1,inactive: 2.85%
7,COC(=O)CC1Oc2ccc(C)cc2-n2cc(-c3ccc(F)cc3)nc21 (stereo not drawn),inactive: 24.5%
8,COC(=O)c1ccc(NC(=O)c2cccc3c2C(=O)N(C2CCCCC2)C3)cc1,inactive: -4.04%
9,CCCSCCCNC(=O)c1cc2n(n1)CCCN(Cc1ccc(C)cc1)C2=O,inactive: -1.07%
10,Cc1ccc(C)c(N2CCN(C(=O)CCn3c(=O)[nH]c4ccccc4c3=O)CC2)c1,inactive: -15.3%
11,Cc1ccc(C)c(NC(=O)CSc2ncc3c(n2)-c2cc(Cl)ccc2N(Cc2ccccc2F)S3(=O)=O)c1,inactive: 25.9%
12,COc1ccc(N2CCN(C(=O)c3cc(NS(=O)(=O)c4ccc(F)cc4)ccn3)CC2)cc1,inactive: 33.3%
13,CCOc1ccc(CCNC(=O)CCN2N=C(c3ccc(OC)cc3)CCC2=O)cc1OCC,inactive: -10.7%
14,Cc1cc(Cl)ccc1NC(=O)CCn1nc(C)c2c(C)n(-c3ccccc3)nc2c1=O,inactive: 10.5%
15,Cc1cccc(OCCSc2nc3ccc(NC(=O)COc4ccccc4F)cc3s2)c1,inactive: 25.5%
16,COc1ccc(-c2oc3ncn4nc(-c5ccccc5Cl)nc4c3c2-c2ccc(OC)cc2)cc1,inactive: -1.93%
17,CC1(C)CC(=O)c2cc(-c3nc(-c4ccc(Cl)cc4)cs3)c(=O)n(-c3ccc(F)cc3)c2C1,inactive: 8.3%
18,CC(CNC1CCCCC1)OC(=O)c1ccccc1 (stereo not drawn),inactive: 3.32%
19,COc1ccc(Cn2ccc3nc(C)c(C(=O)NCc4ccc(C)cc4)cc3c2=O)cc1,inactive: 40.8%
20,Cc1cc(C)c2c(=O)c3c(oc2c1)C(=O)N(Cc1ccco1)C3c1ccc(F)cc1 (stereo not drawn),inactive: -2.18%
21,Cc1ccc(Oc2nc3ccccn3c(=O)c2/C=C(\C#N)c2nc3ccccc3s2)c(C)c1,inactive: 13.9%
22,CCN(CC)c1cc(C)c2cc(NC(=O)/C=C/c3ccccc3OC(C)C)ccc2n1,inactive: 18.3%
23,CCN(CC)c1ccc(NS(=O)(=O)c2ccc(-c3coc(C)n3)cc2)c(C)c1,active: 68.4%
24,Oc1ccccc1-c1nnco1,inactive: -87.3%
25,CCOc1ccc(-c2cc(C(=O)NCCc3ccccc3)c3c(-c4ccc(C)cc4)[nH]nc3n2)cc1,inactive: 8.73%
26,O=C(NCc1ccc2c(c1)CCN2C(=O)c1ccc(Cl)cc1)c1ccco1,inactive: -13.3%
27,O=C(Cn1c(=O)n(-c2ccccc2)c(=O)c2c3c(sc21)CCCC3)Nc1ccccc1,inactive: -0.663%

row,Structure (SMILES),activation
1,Cc1cc(-c2ccc(C)c(S(=O)(=O)N3c4ccccc4CC3C)c2)on1 (stereo not drawn),inactive: -22.8%
2,Cc1nn(C)c2c1c(C(F)(F)F)cc(=O)n2CC(=O)N1CCN(c2ccccc2F)CC1,inactive: -8.2%
3,CC(=O)N1CCc2c(sc3c2c(=O)n(-c2cccc(Cl)c2)c(=O)n3Cc2ccc(F)cc2Cl)C1,inactive: -15%
4,O=C(O)CSc1nnc(-c2ccc(O)cc2)o1,inactive: 11.5%
5,CCOC(=O)c1noc2nc(C)n(CC(=O)Nc3ccc(OC)c(Cl)c3)c(=O)c12,inactive: 22.8%
6,Cc1cc(N2CCC(C(=O)Nc3ccc(Cl)cc3)CC2)n2nc(C)c(-c3ccc(Cl)cc3)c2n1,inactive: -18.7%
7,Cc1ccc(CC(=O)Nc2c(C(=O)N3CCN(c4ccccc4)CC3)oc3ccccc23)cc1,inactive: -26.6%
8,CCOC(=O)CSc1nnc2n(-c3ccccc3)c(=O)c3c4c(sc3n12)COC(C(C)C)C4 (stereo not drawn),inactive: 27.1%
9,CCCCN(CC)CCNC(=O)C1CCN(c2nnc(C)c3c(C)n(-c4ccc(C)cc4)nc23)CC1,inactive: -16.3%
10,Cc1ccc(Cc2c(C)nc3c(-c4ccccc4)c(C)[nH]n3c2=O)cc1,inactive: -16.3%
11,CCc1c(C)nc2nncn2c1NCc1ccc(OC)cc1,inactive: 29.1%
12,Cc1cc2c(cc3c(=O)n(CC(=O)NCc4ccccc4Br)ncn32)s1,inactive: -5.92%
13,Cc1ccc(-n2nc(C)c3c(C(=O)O)cc(C)nc32)cc1,inactive: 1.48%
14,COC(=O)Cc1c(C)c2cc3c(c(C)c2oc1=O)OCN(CCc1ccc(OC)cc1)C3,inactive: -25.2%
15,CCN(CCN(C)C)C(=O)C1CCN(S(=O)(=O)c2c(C)noc2/C=C/c2ccccc2F)CC1,inactive: -18.9%
16,Cc1cc(C)c2c(n1)SCCN2C(=O)Nc1ccc(C(=O)Nc2ccc(C(C)C)cc2)cc1,inactive: -1.36%
17,CCN(CC)c1ccc2cc(-c3nc(-c4cc(OC)c(OC)c(OC)c4)no3)c(=O)oc2c1,inactive: -2.7%
18,CCCOC(=O)c1ccc(O)cc1,inactive: 34.1%
19,Cc1cc(C)c(NC(=O)Cn2nnc(-c3nc(-c4ccccc4)no3)c2N)c(C)c1,inactive: -8.88%
20,COc1cc2cc(CNc3ccccc3)c(=O)n(CC(=O)Nc3cc(C)cc(C)c3)c2cc1OC,inactive: -6.45%
21,O=C(CCC1N=C2c3ccccc3N=C(SCc3ccc(F)cc3)N2C1=O)NC1CCCCC1 (stereo not drawn),inactive: -39.7%
22,CC(=O)c1ccc(NC(=O)c2nc3nc(C)cc(C(F)F)n3n2)cc1,inactive: 13.6%
23,CCOc1ccc(-n2nc(CO)c(C(=O)NCc3cccc(OC)c3)n2)cc1,inactive: -5.21%
24,Cc1cc(C)cc(-n2ccn(CC(=O)Nc3ccccc3F)c(=O)c2=O)c1,inactive: -14.4%
25,Cc1ccc(C)c(NC(=O)C(c2ccccc2)N2Cc3ccccc3C2=O)c1 (stereo not drawn),inactive: -12.1%
26,COc1ccc(-c2cc(=O)oc3c4c(ccc23)OCN(Cc2cccc(OC)c2)C4)cc1,inactive: 39.3%
